Reference: patent US20240294593A1 (Genentech, published 2024)

Key:
human PD-1-His [1] = molecular target: T1, human PD-1-His (human, UniProt Q15116 partial chain, limits assumed); assay: Octet
T1 construct: Antigen of the Octet assays; not shown: His tag

human PD-1-His [2] = molecular target: T1, human PD-1-His; assay: Octet; remark: listed apart in the source
T1 sequence (Q15116 25-167 limits assumed): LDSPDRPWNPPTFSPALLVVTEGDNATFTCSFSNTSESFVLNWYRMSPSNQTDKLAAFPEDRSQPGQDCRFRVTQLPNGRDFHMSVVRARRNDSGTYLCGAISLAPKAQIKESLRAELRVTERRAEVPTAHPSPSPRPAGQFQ

Row | Binder | koff (human PD-1-His [1]) | kon (human PD-1-His [1]) | Kd (human PD-1-His [2]) | koff (human PD-1-His [2]) | kon (human PD-1-His [2])
1 | XENP30046 ([NC]PD-1-targeted IL-15/Rα-Fc comprising mAb C_H1_L1.1 and IL-15(N4D/N65D) variant) (Fc fusion, scIL-15/Rα x Fab format) ITCPPPMSVEHADIWVKSYSLYSRERYICNSGFKRKAGTSSLTECVLNKATNVAHWTTPSLKCIRGGGGSGGGGSGGGGSGGGGSGGGGS[not shown - about 120 residues with changes]EPKSSDKTHTCPPCPAPPVAGPSVFLFPPKPKDTLMISRTPEVTCVVVDVKHEDPEVKFNWYVDGVEVHNAKTKPREEEYNSTYRVVSVLTVLHQDWLNGKEYKCKVSNKALPAPIEKTISKAKGQPREPQVYTLPPSREEMTKNQVSLTCDVSGFYPSDIAVEWESDGQPENNYKTTPPVLDSDGSFFLYSKLTVDKSRWEQGDVFSCSVMHEALHNHYTQKSLSLSPGK heavy: EVQLVESGGGLVQPGGSLRLSCAASGFTFSSFGMHWVRQAPGKGLEWVSYISSGSSIIYYADSVKGRFTISRDNAKNSLYLQMNSLRAEDTAVYYCARGGRLVWSPDYWGQGTLVTVSSASTKGPSVFPLAPSSKSTSGGTAALGCLVKDYFPEPVTVSWNSGALTSGVHTFPAVLQSSGLYSLSSVVTVPSSSLGTQTYICNVNHKPSNTKVDKKVEPKSCDKTHTCPPCPAPPVAGPSVFLFPPKPKDTLMISRTPEVTCVVVDVKHEDPEVKFNWYVDGVEVHNAKTKPREEQYNSTYRVVSVLTVLHQDWLNGKEYKCKVSNKALPAPIEKTISKAKGQPREPQVYTLPPSREQMTKNQVKLTCLVKGFYPSDIAVEWESNGQPENNYKTTPPVLDSDGSFFLYSKLTVDKSRWQQGNVFSCSVMHEALHNHYTQKSLSLSPGK light: DIVMTQSPDSLAVSLGERATINCKSSQSLLHSGNQKNYLTWYQQKPGQPPKLLIYWASTRESGVPDRFTGSGSGTDFTLTISSLQAEDVAVYYCQNDYSYPFTFGSGTKLEIKRTVAAPSVFIFPPSDEQLKSGTASVVCLLNNFYPREAKVQWKVDNALQSGNSQESVTEQDSKDSTYSLSSTLTLSKADYEKHKVYACEVTHQGLSSPVTKSFNRGEC | 0.000488 s⁻¹ | 90400 M⁻¹ s⁻¹ |  |  | 
2 | H1_L1.136 (XENP30445) (Fc fusion, also called mAb C H1_L1.136 x IL-15(D30N/N65D)) chain 1: ITCPPPMSVEHADIWVKSYSLYSRERYICNSGFKRKAGTSSLTECVLNKATNVAHWTTPSLKCIRGGGGSGGGGSGGGGSGGGGSGGGGS[not shown - about 120 residues]EPKSSDKTHTCPPCPAPPVAGPSVFLFPPKPKDTLMISRTPEVTCVVVDVKHEDPEVKFNWYVDGVEVHNAKTKPREEEYNSTYRVVSVLTVLHQDWLNGKEYKCKVSNKALPAPIEKTISKAKGQPREPQVYTLPPSREEMTKNQVSLTCDVSGFYPSDIAVEWESDGQPENNYKTTPPVLDSDGSFFLYSKLTVDKSRWEQGDVFSCSVMHEALHNHYTQKSLSLSPGK chain 2: EVQLVESGGGLVQPGGSLRLSCAASGFTFSSFGMHWVRQAPGKGLEWVSYISSGSSIIYYADSVKGRFTISRDNAKNSLYLQMNSLRAEDTAVYYCARGGRLVWSPDYWGQGTLVTVSSASTKGPSVFPLAPSSKSTSGGTAALGCLVKDYFPEPVTVSWNSGALTSGVHTFPAVLQSSGLYSLSSVVTVPSSSLGTQTYICNVNHKPSNTKVDKKVEPKSCDKTHTCPPCPAPPVAGPSVFLFPPKPKDTLMISRTPEVTCVVVDVKHEDPEVKFNWYVDGVEVHNAKTKPREEQYNSTYRVVSVLTVLHQDWLNGKEYKCKVSNKALPAPIEKTISKAKGQPREPQVYTLPPSREQMTKNQVKLTCLVKGFYPSDIAVEWESNGQPENNYKTTPPVLDSDGSFFLYSKLTVDKSRWQQGNVFSCSVMHEALHNHYTQKSLSLSPGK chain 3: DIVMTQSPDSLAVSLGERATINCKSSQSLLHSGNQKNYLTWYQQKPGQPPKLLIYWASTRESGVPDRFTGSGSGTDFTLTISSLQAEDVAVYYCQNDYTYPFTFGSGTKLEIKRTVAAPSVFIFPPSDEQLKSGTASVVCLLNNFYPREAKVQWKVDNALQSGNSQESVTEQDSKDSTYSLSSTLTLSKADYEKHKVYACEVTHQGLSSPVTKSFNRGEC |  |  | 2.02 nM | 0.000121 s⁻¹ | 59800 M⁻¹ s⁻¹

Like-named read-outs stand apart in the source and are kept apart here.
